{
  "source": "PubChem BioAssay AID2147",
  "about": "(National Center for Advancing Translational Sciences (NCATS), 2009)",
  "note": "Where “and” joins values, the source holds several entries; their conditions need not be identical. Identical values can stand only once. The campaign covered roughly 230,000 compounds. About 3,600 (1.6%) were called active. Inconclusive results, whose numbers are uncertain, are shown with a selection of clear calls. The call rests on the fitted dose curve; in most records, active means well fitted inhibition curve with a large enough effect (not every such curve was filed as active); inconclusive means small, poorly fitted or top-dose-only effect, or another doubt; inactive means no such curve, though single readings can be large or run the other way. Potencies beside an inconclusive call are fits to weak or partial responses and may not hold up. Further: nearly all actives have a fitted effect of over 50% in size. Potency means the concentration at half of the fitted maximal effect; tags describe the fitted curve by direction and shape.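 Wherever activity change, negative = inhibition is given: 0% = wells with enzyme and -100% = buffer wells without enzyme.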",
  "data": [
    {"biological_target": "Lysine-specific demethylase 4E (Homo sapiens) (UniProt B2RXH2)", "sequence (B2RXH2 whole entry, looked up, the tested form may be a part)": "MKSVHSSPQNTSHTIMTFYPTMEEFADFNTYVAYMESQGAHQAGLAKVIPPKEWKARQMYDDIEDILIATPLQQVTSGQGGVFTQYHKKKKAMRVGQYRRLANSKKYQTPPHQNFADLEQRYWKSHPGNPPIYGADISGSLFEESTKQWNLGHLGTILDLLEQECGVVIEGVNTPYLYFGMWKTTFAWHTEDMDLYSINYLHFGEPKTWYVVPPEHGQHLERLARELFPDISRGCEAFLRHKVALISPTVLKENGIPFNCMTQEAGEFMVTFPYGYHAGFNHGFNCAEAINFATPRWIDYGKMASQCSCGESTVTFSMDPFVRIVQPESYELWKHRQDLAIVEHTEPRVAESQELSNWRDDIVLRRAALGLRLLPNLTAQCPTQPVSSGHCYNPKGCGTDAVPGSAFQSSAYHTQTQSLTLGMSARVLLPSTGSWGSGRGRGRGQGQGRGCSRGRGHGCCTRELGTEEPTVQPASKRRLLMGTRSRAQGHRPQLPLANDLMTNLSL", "experiment": "qHTS Assay for Inhibitors of Human Jumonji Domain Containing 2E (JMJD2E)", "conditions": "JMJD2E catalytic domain, FDH-coupled NADH fluorescence (FDH is formaldehyde dehydrogenase); series mostly up to 57.1 µM; activity change, negative = inhibition: at the top concentration", "values": [
      {"smiles": "COC(=O)c1ccc(CC(=O)c2nc3ccccc3s2)cc1", "activity change, negative = inhibition": "inactive: -27.3%"},
      {"smiles": "O=C(CSc1ccccc1)N1CCN(c2ccccn2)CC1", "Potency": "inconclusive: 31.6 µM [inhibitor, partial curve]"},
      {"smiles": "Cc1cccc(C2c3[nH]c4ccccc4c3CCN2Cc2cccn2-c2ncccn2)c1", "note": "(centres undefined)", "Potency": "active: 31.6 µM"},
      {"smiles": "COCCN=c1scc(-c2ccc3c(c2)NC(=O)CO3)n1/N=C(\\C)c1ccc(O)cc1", "activity change, negative = inhibition": "inactive: -23.6%"},
      {"smiles": "COC(=O)C1=C(C)N(Cc2ccco2)C(=O)C1", "Potency": "inconclusive: 39.8 µM [inhibitor, single point]"},
      {"smiles": "O=C(Nc1ccc(N2CCN(C(=O)c3ccco3)CC2)c(Cl)c1)c1cc2ccccc2o1", "Potency": "inconclusive: 35.5 µM [inhibitor, single point]"},
      {"smiles": "O=C1c2cccnc2C(Nc2ccc(Br)cc2)N1Cc1cccs1", "note": "(centres undefined)", "Potency": "inconclusive: 22.4 µM [inhibitor, single point]"},
      {"smiles": "COc1cc(NC2CCCCC2O)c2nc(-c3ccc(Cl)cc3)ccc2c1", "note": "(centres undefined)", "Potency": "active: 22.4 µM"},
      {"smiles": "CC(C)OCCCN1CN(S(=O)(=O)c2cccc(Cl)c2)c2nc3ccccc3nc21", "Potency": "inconclusive: 31.6 µM [inhibitor, single point]"},
      {"smiles": "COc1ccc(-c2noc(CSc3nc(N)c(-c4ccccc4)c(=O)[nH]3)n2)cc1OC", "activity change, negative = inhibition": "inactive: -10.2%"},
      {"smiles": "COc1cccc(CN2CCNC(=O)C2CC(=O)NCCOc2cccnc2)c1OC", "note": "(centres undefined)", "Potency": "inconclusive: 31.6 µM [inhibitor, single point]"},
      {"smiles": "C=CCNc1nnc(-c2ccncc2)s1", "Potency": "inconclusive: 28.2 µM [inhibitor, partial curve]"},
      {"smiles": "COc1ccc(NC(=O)c2csc(Cc3ccc(Cl)cc3)n2)cc1", "Potency": "inconclusive: 39.8 µM [inhibitor, single point]"},
      {"smiles": "COC(=O)c1ccc2[nH]c(C)c(CN3CCCC3)c(=O)c2c1", "Potency": "inconclusive: 28.2 µM [inhibitor, partial curve]"},
      {"smiles": "CCC(=O)Nc1nonc1-c1nc2ccccc2n1Cc1cccc2ccccc12", "Potency": "inconclusive: 28.2 µM [inhibitor, partial curve]"},
      {"smiles": "COc1cc2ccccc2cc1C(=O)NC(=S)Nc1cccc(C(=O)O)c1", "Potency": "inconclusive: 39.8 µM [inhibitor, single point]"},
      {"smiles": "O=c1cc(CCl)[nH]c2nc3ccccc3n12", "Potency": "inconclusive: 25.1 µM [inhibitor, partial curve]"},
      {"smiles": "CCN(C(=O)COC(=O)c1cc(-c2ccc3cc(OC)ccc3c2)nc2ccccc12)C1CCS(=O)(=O)C1", "note": "(centres undefined)", "Potency": "inconclusive: 31.6 µM [inhibitor, partial curve]"},
      {"smiles": "COc1ccc(N2C(=O)C3C4C=CC(CC4)C3C2=O)c([N+](=O)[O-])c1", "note": "(centres undefined)", "activity change, negative = inhibition": "inactive: -0.104%"},
      {"smiles": "O=c1c2cc(N3CCOCC3)ccc2[nH]c(=S)n1CCN1CCCC1", "Potency": "inconclusive: 35.5 µM [inhibitor, single point]"},
      {"smiles": "Cc1ccc(/C=N/c2sc3c(c2C#N)CCC3)s1", "Potency": "inconclusive: 39.8 µM [inhibitor, single point]"},
      {"smiles": "CNS(=O)(=O)c1ccc(NC(=O)c2ccoc2C)cc1", "Potency": "inconclusive: 3.55 µM [inhibitor, partial curve]"},
      {"smiles": "O=C(O)Cn1cnc2sc3c(c2c1=O)CCCC3", "Potency": "inconclusive: 39.8 µM [inhibitor, single point]"},
      {"smiles": "CCOc1cc(/C=C2/C(=O)ON=C2C)ccc1OCc1ccc(F)cc1", "Potency": "inconclusive: 39.8 µM [inhibitor, single point]"},
      {"smiles": "COc1ccc2c(C)cc(N3CCN(c4ccc(F)cc4)CC3)nc2c1", "Potency": "inconclusive: 28.2 µM [inhibitor, partial curve]"},
      {"smiles": "O=c1c2cc([N+](=O)[O-])ccc2nc(CN2CCN(c3ccccn3)CC2)n1-c1ccccc1F", "Potency": "inconclusive: 22.4 µM [inhibitor, single point]"},
      {"smiles": "COc1ccc(-c2nn(-c3ccccc3)cc2/C=N/NC(=O)c2cccc(S(=O)(=O)Nc3ccccc3Cl)c2)cc1", "Potency": "inconclusive: 14.1 µM [inhibitor, partial curve]"},
      {"smiles": "CCc1ccccc1NC(=O)Nc1ccc(F)cc1", "activity change, negative = inhibition": "inactive: 2.46%"},
      {"smiles": "O=C(O)c1ccccc1NC(=S)NC(=O)c1sc2ccccc2c1Cl", "Potency": "inconclusive: 28.2 µM [inhibitor, partial curve]"},
      {"smiles": "COc1ccc(Cn2ccnc2CO)cc1[N+](=O)[O-]", "activity change, negative = inhibition": "inactive: 3.03%"},
      {"smiles": "CCOc1cc(C)nc(N2CCCC(C(=O)NCc3ccccc3F)C2)n1", "note": "(centres undefined)", "Potency": "inconclusive: 39.8 µM [inhibitor, single point]"},
      {"smiles": "COc1ccc(/C=N/c2oc(C)c(C)c2C#N)c(OC)c1", "Potency": "inconclusive: 25.1 µM [inhibitor, partial curve, poor fit]"},
      {"smiles": "O=C(NC1CCCCCC1)c1c(O)c2ccccc2[nH]c1=O", "activity change, negative = inhibition": "inactive: -7.63%"},
      {"smiles": "COc1ccc(CC(=O)Nc2cccc(-c3nnc(-c4cccc(C)c4)o3)c2)cc1OC", "activity change, negative = inhibition": "inactive: -18.8%"},
      {"smiles": "CCOCc1cc(C)[nH]c(=O)c1C#N", "Potency": "inconclusive: 25.1 µM [inhibitor, partial curve]"},
      {"smiles": "CCCN1C2=C(C(=O)CCC2)C(c2ccc(O)c(Br)c2)C2=C1CCCC2=O", "Potency": "inconclusive: 35.5 µM [inhibitor, single point]"},
      {"smiles": "O=S(=O)(O)CCS", "Potency": "inconclusive: 12.6 µM [inhibitor, partial curve]"},
      {"smiles": "CCc1cc2c(=O)c(-c3nc4ccccc4n3C)c(C)oc2c(CN2CCN(C)CC2)c1O", "Potency": "inconclusive: 22.4 µM [inhibitor, partial curve]"},
      {"smiles": "CCOc1ccc(NC(=O)c2ccccc2NS(=O)(=O)c2ccc(F)cc2)c([N+](=O)[O-])c1", "activity change, negative = inhibition": "inactive: -4.97%"},
      {"smiles": "Cc1cc(=O)oc2cc(OCC(=O)OCC(=O)N3CCc4ccccc43)ccc12", "Potency": "inconclusive: 39.8 µM [inhibitor, single point]"},
      {"smiles": "CCc1ccc2c(c1)C1(NN=C(c3ccc(C)cc3)S1)C(=O)N2", "note": "(centres undefined)", "Potency": "inconclusive: 39.8 µM [inhibitor, single point]"},
      {"smiles": "N#C/C(=C(/O)COc1ccc(Cl)cc1)c1nc2ccccc2s1", "Potency": "inconclusive: 39.8 µM [inhibitor, single point]"},
      {"smiles": "CC(=O)Cc1nsc(NC(=O)C2Cc3ccccc3C(=O)O2)n1", "note": "(centres undefined)", "activity change, negative = inhibition": "inactive: -0.375%"},
      {"smiles": "CN1/C(=C\\C(=O)COC(=O)c2ccc(O)cc2)C(C)(C)c2ccccc21", "Potency": "inconclusive: 35.5 µM [inhibitor, single point]"},
      {"smiles": "O=C1CCCc2c1[nH]c1ccc(CN3CCCCC3)cc21", "Potency": "inconclusive: 28.2 µM [inhibitor, partial curve]"},
      {"smiles": "CCOc1ccc(C(=O)NCCCn2ccnc2)cc1", "activity change, negative = inhibition": "inactive: 6.5%"},
      {"smiles": "CC(C)[N+]1(C)C2CCC1CC(OC(=O)C(CO)c1ccccc1)C2", "note": "(centres undefined)", "activity change, negative = inhibition": "inactive: -0.949%"},
      {"smiles": "Cc1c(-c2ccc(Br)cc2)nc2ccccn12", "Potency": "inconclusive: 28.2 µM [inhibitor, partial curve]"},
      {"smiles": "CCCCCCN(C(=O)CCCCCN1C(=O)NC(c2ccc(-c3ccccc3)cc2)C(C(=O)OCc2ccccc2)=C1C)C(C(=O)NCCCC)c1ccc(O)c(C(=O)OC)c1", "note": "(centres undefined)", "Potency": "inconclusive: 31.6 µM [inhibitor, partial curve] and inconclusive: 20 µM [inhibitor, partial curve]"},
      {"smiles": "COc1ccc(-c2n[nH]c(C(F)(F)F)c2-c2cc3ccccc3o2)c(O)c1", "Potency": "inconclusive: 35.5 µM [inhibitor, partial curve]"},
      {"smiles": "Cc1cc(=O)oc2cc(NS(=O)(=O)c3ccccc3)ccc12", "Potency": "inconclusive: 28.2 µM [inhibitor, partial curve]"},
      {"smiles": "CCOC(=O)CNC(=O)CSc1nc2nc(C)c(Br)cc2[nH]1", "activity change, negative = inhibition": "inactive: 0.353%"},
      {"smiles": "COc1ccc(S(=O)(=O)Cc2ccc(C(=O)NCc3ccccn3)o2)cc1", "activity change, negative = inhibition": "inactive: 8.96%"},
      {"smiles": "Cn1c(-c2ccc3c(c2)OCO3)cc(=O)c2ccccc21", "Potency": "inconclusive: 12.6 µM [inhibitor, partial curve] and inconclusive: 31.6 µM [inhibitor, partial curve]"},
      {"smiles": "CC(C)(C)c1ccc(C(=O)Nc2ccc(C=C(C#N)C#N)cc2)cc1", "Potency": "active: 11.2 µM"},
      {"smiles": "COc1ccccc1Nc1nc(-c2sc(NC(=O)c3cccc(Cl)c3)nc2C)cs1", "Potency": "inconclusive: 39.8 µM [inhibitor, single point]"},
      {"smiles": "CCOC(=O)NN1C(=O)c2ccccc2NC1c1cccnc1", "note": "(centres undefined)", "Potency": "inconclusive: 25.1 µM [inhibitor, partial curve]"},
      {"smiles": "CCCCN=c1scc(-c2ccc3c(c2)NC(=O)CO3)n1N=C1CCCC1", "activity change, negative = inhibition": "inactive: -1.15%"},
      {"smiles": "Cc1cc(=O)[nH]c(-c2ccccc2O)n1", "Potency": "inconclusive: 35.5 µM [inhibitor, single point]"},
      {"smiles": "O=C(CSc1ccc(Cl)cc1)NNC(=O)c1cccnc1", "activity change, negative = inhibition": "inactive: -4.56%"},
      {"smiles": "Cc1sc(NC(=O)c2ccco2)c(C(Nc2ccccn2)c2ccccc2)c1C", "note": "(centres undefined)", "Potency": "inconclusive: 39.8 µM [inhibitor, single point]"},
      {"smiles": "CN1C(=O)c2cccc3c(Cl)ccc(c23)C1=O", "Potency": "inconclusive: 25.1 µM [inhibitor, partial curve]"},
      {"smiles": "COc1cc(C(=O)NNC(=S)NC(=O)/C=C/c2ccccc2)cc(OC)c1OC", "Potency": "inconclusive: 25.1 µM [inhibitor, single point]"},
      {"smiles": "Cc1cc(C)n(S(=O)(=O)c2ccc3ccccc3c2)n1", "activity change, negative = inhibition": "inactive: -0.592%"},
      {"smiles": "COCCNC(=O)CSc1nnc(CCCN2C(=O)c3cccc4cccc(c34)C2=O)n1-c1ccccc1", "Potency": "inconclusive: 28.2 µM [inhibitor, single point]"},
      {"smiles": "O=C(CSc1ncccc1C(=O)O)c1ccccc1", "activity change, negative = inhibition": "inactive: 3.65%"},
      {"smiles": "Cc1ccc(Cl)cc1Nc1nc(-c2sc(NC(=O)c3ccco3)nc2C)cs1", "Potency": "active: 25.1 µM"},
      {"smiles": "CCCN1C(=O)CC(c2ccco2)Sc2ccccc21", "note": "(centres undefined)", "activity change, negative = inhibition": "inactive: 3.65%"},
      {"smiles": "CNC(=S)N1N=C(c2ccc(Br)cc2)CC1c1ccc(OC)cc1", "note": "(centres undefined)", "Potency": "inconclusive: 7.08 µM [inhibitor, partial curve]"}
    ]}
  ]
}
